# B1: H66 S298N/T299A/Y300S: anti-αβTCR clone H66 huIgG1, S298N/T299A/Y300S heavy chain (SEQ ID NO 26) (antibody)
# heavy: EVQLLQSGGGLVQPGGSLRLSCAASGYKFTSYVMHWVRQAPGKGLEWVGYINPYNDVTKYNEKFKGRFTLSRDNSKNTLYLQMNSLRAEDTAVYYCARGSYYDYDGFVYWGQGTLVTVSSASTKGPSVFPLAPSSKSTSGGTAALGCLVKDYFPEPVTVSWNSGALTSGVHTFPAVLQSSGLYSLSSVVTVPSSSLGTQTYICNVNHKPSNTKVDKKV[omitted - human IgG1 Fc with S298N T299A Y300S (EU numbers)]
# light: EIVLTQSPATLSLSPGERATLSCSATSSVSYMHWYQQKPGQAPRRLIYDTSKLASGVPARFSGSGSGTSYTLTISSLEPEDFAVYYCQQWSSNPLTFGGGTKVEIKRTVAAPSVFIFPPSDEQLKSGTASVVCLLNNFYPREAKVQWKVDNALQSGNSQESVTEQDSKDSTYSLSSTLTLSKADYEKHKVYACEVTHQGLSSPVTKSFNRGEC
# Tests used:
# [1] = Far-UV CD thermo melting experiment; assay type: physicochemical; conditions: approximately 0.5 mg/mL in PBS, 1° C./min from 25-89° C.; FIG. 40
# Procedure: The stability of the S298N/T299A/Y300S antibody mutant was monitored by a Far-UV CD thermo melting experiment in which the CD signal at 216 nm and 222 nm was monitored as increasing temperature lead to the unfolding of the antibody (denaturation).
# Temperature was controlled by a thermoelectric peltier (Jasco model AWC100) and was increased at a rate of 1° C./min from 25-89° C. The CD spectra were collected on a Jasco 815 spectrophotometer at a protein concentration of approximately 0.5 mg/mL in PBS buffer in a quartz cuvette (Hellma, Inc) with a path length of 10 mm. The scanning speed was 50 nm/min and a data pitch of 0.5 nm. A bandwidth of 2.5 nm was used with a sensitivity setting of medium. The CD signal and HT voltage were collected from 210-260 nm with data intervals of 0.5 nm and at temperature intervals of 1° C. and four replicate scans were performed for each sample.
# [2] = test system: human PBMC; experiment: T cell depletion/Cytokine Release assay in PBMC; assay type: cell-based
# Procedure: Fc-engineered mutants were assessed through a PBMC proliferation assay and a cytokine release assay. In the PBMC proliferation assay, human PBMC were cultured with increasing concentrations of therapeutic antibody for 72 hours, ^3H-thymidine was added and cells were harvested 18 hours later. For the T cell depletion/Cytokine Release assay, human PBMC were cultured with increasing concentrations of therapeutic antibody and were analyzed daily for cell counts and viability (Vi-Cell, Beckman Coulter) out to day 7. Cell supernatants were also harvested, stored at −20° C. and analyzed on an 8-plex cytokine panel (Bio-Rad).
# Normal donor PBMC were thawed and treated under the following conditions (all in media containing complement): Untreated; BMA031, moIgG2b 10 ug/ml; OKT3, moIgG2a 10 ug/ml; H66, huIgG1 deltaAB 10 ug/ml, 1 ug/ml and 0.1 ug/ml; H66, huIgG1 S298N/T299A/Y300S 10 ug/ml, 1 ug/ml and 0.1 ug/ml.
# Cytokines were harvested at day 2 (D2) and day 4 (D4) for Bioplex Analysis (IL2, IL4, IL6, IL8, IL10, GM-CSF, IFNg, TNFa). Cells were stained at D4 for CD4, CD8, CD25 and abTCR expression.
molecule,measurement,setting,value
B1,onset temperature for degradation,[1],around 63 °C
same,cytokine release,[2]; D2 and D4 time points,minimal cytokine release
same,T-cell activation by CD25 expression,[2]; cells stained at D4,minimal T-cell activation
same,binding to abTCR,[2]; cells stained at D4,binding to abTCR (with slightly different kinetics to deltaAB)

# Source: patent US10064952B2, “Glycoengineered antibody drug conjugates” (Genzyme Corporation, priority 2014, dated 2018)
